Drawing on PubChem BioAssay AID485344 (National Center for Advancing Translational Sciences (NCATS), 2010), this text covers inhibition for 25 compounds.

Screen size: about 340,000 compounds; about 6,900 (2%) were called active. Cut-off read from the data, not from the text of the source: active = inhibition above about 30%; inactive = below that, where a call was filed. Only a part is listed here, and it is no random draw. Where no call is shown, the source filed none.

UniProt P14416, sequence (P14416 whole entry, looked up): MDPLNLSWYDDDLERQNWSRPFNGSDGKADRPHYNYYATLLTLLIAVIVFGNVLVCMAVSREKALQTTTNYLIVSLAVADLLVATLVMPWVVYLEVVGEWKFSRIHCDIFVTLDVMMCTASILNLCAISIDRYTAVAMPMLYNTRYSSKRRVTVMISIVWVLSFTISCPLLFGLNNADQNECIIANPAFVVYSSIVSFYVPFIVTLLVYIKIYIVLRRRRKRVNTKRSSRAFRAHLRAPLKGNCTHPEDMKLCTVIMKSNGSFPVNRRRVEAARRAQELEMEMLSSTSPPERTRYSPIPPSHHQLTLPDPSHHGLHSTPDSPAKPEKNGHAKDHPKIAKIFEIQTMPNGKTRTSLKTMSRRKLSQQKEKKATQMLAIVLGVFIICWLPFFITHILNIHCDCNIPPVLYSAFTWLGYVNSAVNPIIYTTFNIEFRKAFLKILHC

In this test the target is D(2) dopamine receptor (Homo sapiens) (UniProt P14416). The test can be described thus: HTS Assay for Allosteric Antagonists of the Human D2 Dopamine Receptor: Primary Screen for Antagonists. Note: 0% is about no effect. The following applies: HEK293 TREx D2 cells, calcium flux, dopamine EC80; at 10 µM; stronger effect = higher value. The gist of the method:
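HEK293 T-REx D2 cells, tet-induced, calcium dye no-wash. Cpd pintool add, 180 s kinetic, then EC80 DA, 180 s kinetic. Ca flux read.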
(A change in cytosolic calcium serves as a functional read-out for many receptors and channels.)
For `CCOC(=O)c1ccc(NC(=O)CSc2ncc(S(=O)(=O)c3ccc(C)c(Cl)c3)c(=O)[nH]2)cc1`, the inhibition is 14.3%.

For `OC(COCC1COc2ccccc2O1)CN1CCN(c2ccccc2F)CC1` (stereo not given), the inhibition was active: 83.6%.

As for `CCn1cc2nc(SCC(=O)Nc3ccc(OC)cc3OC)n(Cc3ccc(Cl)cc3)c(=O)c2n1`, the inhibition is -6.67%.

For the compound `CCc1ccc(CN(Cc2ccco2)C(=O)c2cc(-c3ccc(C)c(F)c3)on2)cc1`, the inhibition is 10.3%.

In the case of `CCOc1ccc(NC(=O)Cn2cc(C(=O)c3ccc(C)cc3)c(=O)c3cc4c(cc32)OCO4)cc1`, the inhibition was determined as 0.765%.

With `CCOCCc1nn2c(=O)cc(COC(=O)c3ccccc3NC(=O)c3ccc(C)cc3)nc2s1`, the inhibition was -1.29%.

As to `Cc1ccc(Cl)cc1N1CCN(C(=O)c2noc3c2CCCC3)CC1`, the inhibition is -4.26%.

On to `CCOC(=O)c1cc2c(=O)n3ccccc3nc2n(Cc2ccco2)c1=NC(=O)c1cccc(Br)c1`, for which the inhibition came out at 3.94%.

On to `CCN(CC)CCNCc1ccc(-c2ccc(Cl)cc2)o1`, for which the inhibition is active: 33.4%.

As for `Cc1ccc(-n2nnnc2CNC(=O)C2CC(=O)N(c3ccccc3)C2)cc1C` (stereo not given), the inhibition was -9%.

Turning to `COc1ccc(Cl)cc1NC(=O)Cn1nnc2sc(-c3ccccc3)cc2c1=O`, the inhibition was 2.46%.

With `CCN(CC)c1ccc(NC(=O)CCc2c(C)nc3ncnn3c2C)c(C)c1`, the inhibition was -4.14%.

In the case of `COc1cc(C2C(C(=O)Nc3ccccc3C)=C(C)Nc3nc(SCc4cc(C)ccc4C)nn32)ccc1O` (stereo not given), the inhibition is 13.4%.

Turning to `CN(c1ccc(OCC(=O)N2CCOCC2)cc1)S(=O)(=O)c1ccc(Cl)cc1`, the inhibition was active: 35.4%.

Consider `O=S(=O)(NCCc1csc2nc(-c3ccccc3)nn12)c1ccc(Oc2ccccc2)cc1`, for which the inhibition was 22.5%.

As for `CCCc1nn2c(=O)cc(COC(=O)c3ccc(NC(=O)COc4ccccc4F)cc3)nc2s1`, the inhibition is -0.999%.

In the case of `Cc1ccc(S(=O)(=O)N2CCc3cc(C(=O)Nc4ccc(Cl)cc4C)ccc32)cc1`, the inhibition was -12.2%.

As for `CCOc1ccc(CCNCc2c(C(=O)O)c(C)n(Cc3ccccc3F)c2C)cc1`, the inhibition is -3.19%.

On to `CCOc1ccc(NC(=O)[C@@H](c2ccccc2)N2Cc3ccccc3C2=O)cc1`, for which the inhibition is -9.64%.

Turning to `CC(C)c1ccc(N2C(=O)N(Cc3cccc([N+](=O)[O-])c3)c3ccccc3S2(=O)=O)cc1`, the inhibition came to 5.19%.

As to `CC1Cc2cc(S(=O)(=O)NCc3ccc(Cl)cc3)ccc2N1C(=O)C1CCC1` (stereo not given), the inhibition is -17.1%.

Take `Cc1ccc(CN2C(=O)CCC2C(=O)NCCN2CCN(c3cccc(Cl)c3)CC2)cc1` (stereo not given): the inhibition is active: 43.8%.

Take `COc1ccc(NS(=O)(=O)c2ccc3c(c2)[C@H]2C=CC[C@H]2[C@@H](c2ccc(C(=O)O)cc2)N3)cc1`: the inhibition was -5.71%.

For the compound `CSc1cccc(NC(=O)/C=C/c2ccccc2)c1`, the inhibition was active: 39.3%.

As to `O=C1CN(C(=O)Cc2ccccc2)C(c2ccc(F)cc2)c2cc(Br)ccc2N1` (stereo not given), the inhibition was -1.11%.

Usually inhibition stands for the relative decrease from the control value, in per cent.
